The results in this text go back to US20160159928A1.

B1: BLV1H12+CDR3-IL8 heavy chain with human germline light chain V1-2J7 (antibody, human IgG1, lambda)
heavy: QVQLRESGPSLVKPSQTLSLTCTASGFSLSDKAVGWVRQAPGKALEWLGSIDTGGNTGYNPGLKSRLSITKDNSKSQVSLSVSSVTTEDSATYYCTSVHQETKKYQSPRSAKELRCQCIKTYSKPFHPKFIKELRVIESGPHCANTEIIVKLSDGRELCLDPKENWVQRVVEKFLKRAENSGSGSYTYNYEWHVDVWGQGLLVTVSS[omitted - human IgG1 constant region]
light: QSALTQPPSASGSPGQSVTISCTGTSSDVGGYNYVSWYQQHPGKAPKLMIYEVSKRPSGVPDRFSGSKSGNTASLTVSGLQAEDEADYYCSSYAGSNNFAVFGGGTQLTVLGQPKAAPSVTLFPPSSEELQANKATLVCLISDFYPGAVTVAWKADSSPVKAGVETTTPSKQSNNKYAASSYLSLTPEQWKSHRSYSCQVTHEGSTVEKTVAPTECS
B2: BLV1H12+CDR3-IL8 heavy chain with human germline light chain V2-17J2 (antibody, human IgG1, lambda)
heavy: QVQLRESGPSLVKPSQTLSLTCTASGFSLSDKAVGWVRQAPGKALEWLGSIDTGGNTGYNPGLKSRLSITKDNSKSQVSLSVSSVTTEDSATYYCTSVHQETKKYQSPRSAKELRCQCIKTYSKPFHPKFIKELRVIESGPHCANTEIIVKLSDGRELCLDPKENWVQRVVEKFLKRAENSGSGSYTYNYEWHVDVWGQGLLVTVSS[omitted - human IgG1 constant region]
light: SYELTQPPSVSVSPGQTARITCSGDALPKQYAYWYQQKPGQAPVLVIYKDSERPSGIPERFSGSSSGTTVTLTISGVQAEDEADYYCQSADSSGTYPVVFGGGTKLTVLGQPKAAPSVTLFPPSSEELQANKATLVCLISDFYPGAVTVAWKADSSPVKAGVETTTPSKQSNNKYAASSYLSLTPEQWKSHRSYSCQVTHEGSTVEKTVAPTECS
B3: BLV1H12+CDR3-IL8 heavy chain with human germline light chain V3-4J1 (antibody, human IgG1, lambda)
heavy: QVQLRESGPSLVKPSQTLSLTCTASGFSLSDKAVGWVRQAPGKALEWLGSIDTGGNTGYNPGLKSRLSITKDNSKSQVSLSVSSVTTEDSATYYCTSVHQETKKYQSPRSAKELRCQCIKTYSKPFHPKFIKELRVIESGPHCANTEIIVKLSDGRELCLDPKENWVQRVVEKFLKRAENSGSGSYTYNYEWHVDVWGQGLLVTVSS[omitted - human IgG1 constant region]
light: QTVVTQEPSFSVSPGGTVTLTCGLSSGSVSTSYYPSWYQQTPGQAPRTLIYSTNTRSSGVPDRFSGSILGNKAALTITGAQADDESDYYCVLYMGSGISYVFGTGTKVTVLGQPKAAPSVTLFPPSSEELQANKATLVCLISDFYPGAVTVAWKADSSPVKAGVETTTPSKQSNNKYAASSYLSLTPEQWKSHRSYSCQVTHEGSTVEKTVAPTECS
B4: BLV1H12+CDR3-IL8 heavy chain with human germline light chain V1-7J1 (antibody, human IgG1, lambda)
heavy: QVQLRESGPSLVKPSQTLSLTCTASGFSLSDKAVGWVRQAPGKALEWLGSIDTGGNTGYNPGLKSRLSITKDNSKSQVSLSVSSVTTEDSATYYCTSVHQETKKYQSPRSAKELRCQCIKTYSKPFHPKFIKELRVIESGPHCANTEIIVKLSDGRELCLDPKENWVQRVVEKFLKRAENSGSGSYTYNYEWHVDVWGQGLLVTVSS[omitted - human IgG1 constant region]
light: QSALTQPASVSGSPGQSITISCTGTSSDVGSYNLVSWYQQHPGKAPKLMIYEGSKRPSGVSNRFSGSKSGNTASLTISGLQAEDEADYYCCSYAGSSTFYVFGTGTKVTVLGQPKAAPSVTLFPPSSEELQANKATLVCLISDFYPGAVTVAWKADSSPVKAGVETTTPSKQSNNKYAASSYLSLTPEQWKSHRSYSCQVTHEGSTVEKTVAPTECS
B5: VH4-34+CDR3-IL8_CDR1 G31D, Y32K with light chain V1-51 (antibody, human IgG1, lambda)
heavy: QVQLQQWGAGLLKPSETLSLTCAVYGGSFSDKYWSWIRQPPGKGLEWIGEINHSGSTNYNPSLKSRVTISVDTSKNQFSLKLSSVTAADTAVYYCTSVHQETKKYQSPRSAKELRCQCIKTYSKPFHPKFIKELRVIESGPHCANTEIIVKLSDGRELCLDPKENWVQRVVEKFLKRAENSGSGSYTYNYEWHVDVWGQGLLVTVSS[omitted - human IgG1 constant region]
light: QSVLTQPPSVSAAPGQKVTISCSGSSSNIGNNYVSWYQQLPGTAPKLLIYDNNKRPSGIPDRFSGSKSGTSATLGITGLQTGDEADYYCASAEDSSSNAVFGSGTTLTVLGQPKAAPSVTLFPPSSEELQANKATLVCLISDFYPGAVTVAWKADSSPVKAGVETTTPSKQSNNKYAASSYLSLTPEQWKSHRSYSCQVTHEGSTVEKTVAPTECS
B6: VH4-34+CDR3-IL8_CDR1 Cow_CDR2 E50S with light chain V1-51 (antibody, human IgG1, lambda)
heavy: QVQLQQWGAGLLKPSETLSLTCTASGFSLSDKAVGWIRQPPGKGLEWIGSINHSGSTNYNPSLKSRVTISVDTSKNQFSLKLSSVTAADTAVYYCTSVHQETKKYQSPRSAKELRCQCIKTYSKPFHPKFIKELRVIESGPHCANTEIIVKLSDGRELCLDPKENWVQRVVEKFLKRAENSGSGSYTYNYEWHVDVWGQGLLVTVSS[omitted - human IgG1 constant region]
light: QSVLTQPPSVSAAPGQKVTISCSGSSSNIGNNYVSWYQQLPGTAPKLLIYDNNKRPSGIPDRFSGSKSGTSATLGITGLQTGDEADYYCASAEDSSSNAVFGSGTTLTVLGQPKAAPSVTLFPPSSEELQANKATLVCLISDFYPGAVTVAWKADSSPVKAGVETTTPSKQSNNKYAASSYLSLTPEQWKSHRSYSCQVTHEGSTVEKTVAPTECS
B7: VH4-34+CDR3-IL8_CDR2 E50S with light chain V1-51 (antibody, human IgG1, lambda)
heavy: QVQLQQWGAGLLKPSETLSLTCAVYGGSFSGYYWSWIRQPPGKGLEWIGSINHSGSTNYNPSLKSRVTISVDTSKNQFSLKLSSVTAADTAVYYCTSVHQETKKYQSPRSAKELRCQCIKTYSKPFHPKFIKELRVIESGPHCANTEIIVKLSDGRELCLDPKENWVQRVVEKFLKRAENSGSGSYTYNYEWHVDVWGQGLLVTVSS[omitted - human IgG1 constant region]
light: QSVLTQPPSVSAAPGQKVTISCSGSSSNIGNNYVSWYQQLPGTAPKLLIYDNNKRPSGIPDRFSGSKSGTSATLGITGLQTGDEADYYCASAEDSSSNAVFGSGTTLTVLGQPKAAPSVTLFPPSSEELQANKATLVCLISDFYPGAVTVAWKADSSPVKAGVETTTPSKQSNNKYAASSYLSLTPEQWKSHRSYSCQVTHEGSTVEKTVAPTECS
B8: VH4-34+CDR3-IL8_CDR1 G31D, Y32K_CDR2 Cow with light chain V1-51 (antibody, human IgG1, lambda)
heavy: QVQLQQWGAGLLKPSETLSLTCAVYGGSFSDKYWSWIRQPPGKGLEWLGSIDTGGNTGYNPSLKSRVTISVDTSKNQFSLKLSSVTAADTAVYYCTSVHQETKKYQSPRSAKELRCQCIKTYSKPFHPKFIKELRVIESGPHCANTEIIVKLSDGRELCLDPKENWVQRVVEKFLKRAENSGSGSYTYNYEWHVDVWGQGLLVTVSS[omitted - human IgG1 constant region]
light: QSVLTQPPSVSAAPGQKVTISCSGSSSNIGNNYVSWYQQLPGTAPKLLIYDNNKRPSGIPDRFSGSKSGTSATLGITGLQTGDEADYYCASAEDSSSNAVFGSGTTLTVLGQPKAAPSVTLFPPSSEELQANKATLVCLISDFYPGAVTVAWKADSSPVKAGVETTTPSKQSNNKYAASSYLSLTPEQWKSHRSYSCQVTHEGSTVEKTVAPTECS
B9: VH4-34+CDR3-IL8 with light chain V1-51 (antibody, human IgG1, lambda)
heavy: QVQLQQWGAGLLKPSETLSLTCAVYGGSFSGYYWSWIRQPPGKGLEWIGEINHSGSTNYNPSLKSRVTISVDTSKNQFSLKLSSVTAADTAVYYCTSVHQETKKYQSPRSAKELRCQCIKTYSKPFHPKFIKELRVIESGPHCANTEIIVKLSDGRELCLDPKENWVQRVVEKFLKRAENSGSGSYTYNYEWHVDVWGQGLLVTVSS[omitted - human IgG1 constant region]
light: QSVLTQPPSVSAAPGQKVTISCSGSSSNIGNNYVSWYQQLPGTAPKLLIYDNNKRPSGIPDRFSGSKSGTSATLGITGLQTGDEADYYCASAEDSSSNAVFGSGTTLTVLGQPKAAPSVTLFPPSSEELQANKATLVCLISDFYPGAVTVAWKADSSPVKAGVETTTPSKQSNNKYAASSYLSLTPEQWKSHRSYSCQVTHEGSTVEKTVAPTECS
B10: VH4-34+CDR3-IL8_CDR2 Cow with light chain V1-51 (antibody, human IgG1, lambda)
heavy: QVQLQQWGAGLLKPSETLSLTCAVYGGSFSGYYWSWIRQPPGKGLEWLGSIDTGGNTGYNPSLKSRVTISVDTSKNQFSLKLSSVTAADTAVYYCTSVHQETKKYQSPRSAKELRCQCIKTYSKPFHPKFIKELRVIESGPHCANTEIIVKLSDGRELCLDPKENWVQRVVEKFLKRAENSGSGSYTYNYEWHVDVWGQGLLVTVSS[omitted - human IgG1 constant region]
light: QSVLTQPPSVSAAPGQKVTISCSGSSSNIGNNYVSWYQQLPGTAPKLLIYDNNKRPSGIPDRFSGSKSGTSATLGITGLQTGDEADYYCASAEDSSSNAVFGSGTTLTVLGQPKAAPSVTLFPPSSEELQANKATLVCLISDFYPGAVTVAWKADSSPVKAGVETTTPSKQSNNKYAASSYLSLTPEQWKSHRSYSCQVTHEGSTVEKTVAPTECS
B11: VH4-34+CDR3-IL8_CDR1 G31D, Y32K_CDR2 E50S with light chain V1-51 (antibody, human IgG1, lambda)
heavy: QVQLQQWGAGLLKPSETLSLTCAVYGGSFSDKYWSWIRQPPGKGLEWIGSINHSGSTNYNPSLKSRVTISVDTSKNQFSLKLSSVTAADTAVYYCTSVHQETKKYQSPRSAKELRCQCIKTYSKPFHPKFIKELRVIESGPHCANTEIIVKLSDGRELCLDPKENWVQRVVEKFLKRAENSGSGSYTYNYEWHVDVWGQGLLVTVSS[omitted - human IgG1 constant region]
light: QSVLTQPPSVSAAPGQKVTISCSGSSSNIGNNYVSWYQQLPGTAPKLLIYDNNKRPSGIPDRFSGSKSGTSATLGITGLQTGDEADYYCASAEDSSSNAVFGSGTTLTVLGQPKAAPSVTLFPPSSEELQANKATLVCLISDFYPGAVTVAWKADSSPVKAGVETTTPSKQSNNKYAASSYLSLTPEQWKSHRSYSCQVTHEGSTVEKTVAPTECS

The first assay addresses CXCR1 (UniProt P25024). Briefly: flow cytometry; secreted IgG, CXCR1-U2OS over parental U2OS cells.
UniProt P25024, sequence (P25024 whole entry): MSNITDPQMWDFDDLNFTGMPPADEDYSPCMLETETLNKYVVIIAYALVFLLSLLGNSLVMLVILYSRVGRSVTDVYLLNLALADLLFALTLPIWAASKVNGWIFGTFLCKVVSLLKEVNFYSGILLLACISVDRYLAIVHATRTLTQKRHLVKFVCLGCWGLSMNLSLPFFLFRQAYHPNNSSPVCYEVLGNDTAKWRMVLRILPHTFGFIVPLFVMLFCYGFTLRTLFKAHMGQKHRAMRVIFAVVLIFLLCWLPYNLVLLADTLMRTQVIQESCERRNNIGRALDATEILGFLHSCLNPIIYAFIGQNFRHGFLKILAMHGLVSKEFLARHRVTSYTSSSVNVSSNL
Regarding B1, the FACS CXCR1/Parental Ratio turned out to be 0.8.

Turning to B2, the FACS CXCR1/Parental Ratio was 2.

B3: the FACS CXCR1/Parental Ratio is 1.2.

Consider B4, for which the FACS CXCR1/Parental Ratio stood at 0.6.

Another assay deals with CXCR1 (UniProt P25024). Briefly: flow cytometry; CXCR1-U2OS over parental U2OS cells.
With B5, the CXCR1/Parental Ratio came out at 3.

With B6, the CXCR1/Parental Ratio was determined as 3.1.

Turning to B7, the CXCR1/Parental Ratio is 1.8.

Regarding B8, the CXCR1/Parental Ratio worked out at 2.6.

As to B9, the CXCR1/Parental Ratio worked out at 2.9.

On to B10, for which the CXCR1/Parental Ratio worked out at 3.9.

For the molecule B11, the CXCR1/Parental Ratio turned out to be 3.
